According to US20210269542A1 (POTENZA THERAPEUTICS, published 2021):
Where two headings read alike, the source gives them in different places.

Legend:
[1] = target: T1, human GITR T43R-Fc (human, UniProt Q9Y5U5 26-162); experiment: BLI Octet, ABP on AHC sensor, 25 nM antigen, single concentration
T1 construct: also called hGITR-T43R; Human GITR-Fc T43R
T1 chain: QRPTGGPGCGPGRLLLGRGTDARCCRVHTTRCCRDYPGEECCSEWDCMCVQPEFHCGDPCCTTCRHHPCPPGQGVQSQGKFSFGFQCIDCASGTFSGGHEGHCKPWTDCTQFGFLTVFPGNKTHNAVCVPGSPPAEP

[2] = target: T2, cyno GITR-Fc (cynomolgus monkey); experiment: as above
T2 construct: also called cGITR; cynomolgus GITR
T2 chain: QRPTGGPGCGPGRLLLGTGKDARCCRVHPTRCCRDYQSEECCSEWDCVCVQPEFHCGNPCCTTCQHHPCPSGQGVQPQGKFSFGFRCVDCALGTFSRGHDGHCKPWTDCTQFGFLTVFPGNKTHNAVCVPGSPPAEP

[3] = target: T3, human GITR-Fc (human, UniProt Q9Y5U5 26-162); experiment: as above
T3 construct: also called recombinant hGITR; wild type human GITR-Fc
T3 sequence: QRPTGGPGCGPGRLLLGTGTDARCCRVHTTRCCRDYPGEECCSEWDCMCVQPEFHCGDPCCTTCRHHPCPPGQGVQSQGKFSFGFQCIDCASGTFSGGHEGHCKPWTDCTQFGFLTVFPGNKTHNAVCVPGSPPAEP

[4] = target: T4, mouse GITR-Fc (mouse, UniProt O35714 20-153); experiment: as above
T4 construct: also called mGITR
T4 sequence: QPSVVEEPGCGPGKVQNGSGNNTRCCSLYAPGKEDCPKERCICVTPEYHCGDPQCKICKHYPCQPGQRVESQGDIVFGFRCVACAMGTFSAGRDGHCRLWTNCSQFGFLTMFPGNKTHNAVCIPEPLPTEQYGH

[5] = target: T1, human GITR T43R-Fc; experiment: BLI Octet, ABP on AHC sensor, antigen 50-0.78 nM, multi-concentration, n = 1
[6] = target: T5, cynomolgus monkey GITR expressed on HT1080 cells (cynomolgus monkey); experiment: cell-based or functional assay
T5 chain: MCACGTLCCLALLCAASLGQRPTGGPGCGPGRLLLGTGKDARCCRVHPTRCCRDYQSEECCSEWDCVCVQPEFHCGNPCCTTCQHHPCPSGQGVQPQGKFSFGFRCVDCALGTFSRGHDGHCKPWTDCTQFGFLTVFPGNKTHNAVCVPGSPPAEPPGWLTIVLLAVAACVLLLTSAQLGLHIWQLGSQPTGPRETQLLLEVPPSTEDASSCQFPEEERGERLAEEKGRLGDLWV

[7] = target: T6, human GITR expressed on cells (human, UniProt Q9Y5U5 26-241); experiment: cell-based or functional assay
T6 sequence: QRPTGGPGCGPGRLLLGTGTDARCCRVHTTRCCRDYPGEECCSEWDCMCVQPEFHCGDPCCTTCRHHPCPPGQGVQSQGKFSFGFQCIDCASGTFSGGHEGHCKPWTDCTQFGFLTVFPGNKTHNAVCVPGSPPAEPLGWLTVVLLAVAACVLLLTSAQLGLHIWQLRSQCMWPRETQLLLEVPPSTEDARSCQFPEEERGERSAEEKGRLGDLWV

[8] = target: T2, cyno GITR-Fc; experiment: BLI Octet, ABP on AHC sensor, antigen 50-0.78 nM, multi-concentration, n = 3
[9] = target: T3, human GITR-Fc; experiment: as above
[10] = target: T6, human GITR expressed on cells; experiment: cell-based or functional assay; remark: listed apart in the source
[11] = target: T6, human GITR expressed on cells; experiment: cell-based or functional assay; remark: listed apart in the source
[12] = target: T2, cyno GITR-Fc; experiment: BLI Octet RED384, ABP on AHQ sensor, 100 nM antigen, single concentration;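 note: association and dissociation each tracked over 180 s, with dissociation run in antigen-free buffer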
[13] = target: T3, human GITR-Fc; experiment: as above

| Binder | Kd [1] [nM] | Kd [2] [nM] | Kd [3] [nM] | binding result [4] | Kd [5] [nM] | % Maximum IL-8 Induction Relative to GITRL in cynomolgus HT1080 [6] [%] | Average EC50 in cynomolgus HT1080 (IL-8 induction) [6] [nM] | % Maximum IL-8 Induction Relative to GITRL in human HT1080 [7] [%] | Average EC50 in Human HT1080 (IL-8 induction) [7] [nM] | Kd [8] [nM] | Kd [9] [nM] | % Activity Compared to GITRL, Jurkat cells expressing human GITR [10] [%] | EC50, Jurkat cells expressing human GITR [10] [nM] | Average EC50 in Human HT1080 (IL-8 induction) [11] [nM] | binding result [12] | Kd [13] [nM] |
| --- | --- | --- | --- | --- | --- | --- | --- | --- | --- | --- | --- | --- | --- | --- | --- | --- |
| ABP7 (antibody, human IgG4 S228P, kappa, TM format, N-terminal Fab: VH + IgG1 CH1 + GGGGS + VH + IgG4 S228P; heavy chain with or without C-terminal Lys) heavy: QVQLQESGPGLVKPSETLSLTCAVSGYSISSEYMWGWIRQPPGKGLEWIGLIYHSGKTYYNPSLKSRVTISVDTSKNQFSLKLSSVTAADTAVYYCAREADRGYGDYGGHHAFDIWGQGTMVTVSSASTKGPSVFPLAPSSKSTSGGTAALGCLVKDYFPEPVTVSWNSGALTSGVHTFPAVLQSSGLYSLSSVVTVPSSSLGTQTYICNVNHKPSNTKVDKRVEPKSCGGGGSQVQLQESGPGLVKPSETLSLTCAVSGYSISSEYMWGWIRQPPGKGLEWIGLIYHSGKTYYNPSLKSRVTISVDTSKNQFSLKLSSVTAADTAVYYCAREADRGYGDYGGHHAFDIWGQGTMVTVSSASTKGPSVFPLAPCSRSTSESTAALGCLVKDYFPEPVTVSWNSGALTSGVHTFPAVLQSSGLYSLSSVVTVPSSSLGTKTYTCNVDHKPSNTKVDKRV[human IgG4 Fc with S228P (EU numbers) left out] light: DIQMTQSPSSLSASVGDRVTITCRASQSINSYLNWYQQKPGKAPKLLIYAASSLDSGVPSRFSGSGSGTDFTLTISSLQPEDFATYYCQQEYNTPPTFGGGTKVEIKRTVAAPSVFIFPPSDEQLKSGTASVVCLLNNFYPREAKVQWKVDNALQSGNSQESVTEQDSKDSTYSLSSTLTLSKADYEKHKVYACEVTHQGLSSPVTKSFNRGEC | 1.1 | 1.9 | 0.76 | no binding (tested: 25 nM) | 0.7 | 95 | 0.128 | 124 | 0.217 | 1.7 | 0.45 | 108 | 0.2 | – | – | – |
| ABP8 (antibody, human IgG4 S228P, kappa, TM format, N-terminal Fab: VH + IgG1 CH1 + GGGGS + VH + IgG4 S228P; heavy chain with or without C-terminal Lys) heavy: QVQLQESGPGLVKPSETLSLTCAVSGYSISSEYMWGWIRQPPGKGLEWIGLIYHSGKTYYNPSLKSRVTISVDTSKNQFSLKLSSVTAADTAVYYCAREADRGYGDYGGHHAFDIWGQGTMVTVSSASTKGPSVFPLAPSSKSTSGGTAALGCLVKDYFPEPVTVSWNSGALTSGVHTFPAVLQSSGLYSLSSVVTVPSSSLGTQTYICNVNHKPSNTKVDKRVEPKSCGGGGSQVQLQESGPGLVKPSETLSLTCAVSGYSISSEYMWGWIRQPPGKGLEWIGLIYHSGKTYYNPSLKSRVTISVDTSKNQFSLKLSSVTAADTAVYYCAREADRGYGDYGGHHAFDIWGQGTMVTVSSASTKGPSVFPLAPCSRSTSESTAALGCLVKDYFPEPVTVSWNSGALTSGVHTFPAVLQSSGLYSLSSVVTVPSSSLGTKTYTCNVDHKPSNTKVDKRV[human IgG4 Fc with S228P (EU numbers) left out] light: DIQMTQSPSSLSASVGDRVTITCGASQSISTYLNWYQQKPGKAPKLLIYSASSLESGVPSRFSGSGSGTDFTLTISSLQPEDFATYYCQQEYNTPPSFGGGTKVEIKRTVAAPSVFIFPPSDEQLKSGTASVVCLLNNFYPREAKVQWKVDNALQSGNSQESVTEQDSKDSTYSLSSTLTLSKADYEKHKVYACEVTHQGLSSPVTKSFNRGEC | 1.02 | 0.94 | 0.73 | no binding (tested: 25 nM) | 0.66 | 89 | 0.201 | 100 | 0.255 | 0.66 | 0.52 | 114 | 0.3 | – | – | – |

Next, values leading:

| Kd [1] [nM] | Kd [2] [nM] | Kd [3] [nM] | binding result [4] | Kd [5] [nM] | % Maximum IL-8 Induction Relative to GITRL in cynomolgus HT1080 [6] [%] | Average EC50 in cynomolgus HT1080 (IL-8 induction) [6] [nM] | % Maximum IL-8 Induction Relative to GITRL in human HT1080 [7] [%] | Average EC50 in Human HT1080 (IL-8 induction) [7] [nM] | Kd [8] [nM] | Kd [9] [nM] | % Activity Compared to GITRL, Jurkat cells expressing human GITR [10] [%] | EC50, Jurkat cells expressing human GITR [10] [nM] | Average EC50 in Human HT1080 (IL-8 induction) [11] [nM] | binding result [12] | Kd [13] [nM] | Binder |
| --- | --- | --- | --- | --- | --- | --- | --- | --- | --- | --- | --- | --- | --- | --- | --- | --- |
| – | – | – | – | – | – | – | – | – | – | – | – | – | 0.18 | – | – | ABP9 (antibody, human IgG4 S228P, kappa) heavy: QLQLQESGPGLVKPSETLSLTCTVSGGSISSSSYAWGWIRQPPGKGLEWIGSIYYSGSTYYNPSLKSRVTISVDTSKNQFSLKLSSVTAADTAVYYCARDSGRGYGDYGGHHAFDIWGQGTMVTVSSASTKGPSVFPLAPSSKSTSGGTAALGCLVKDYFPEPVTVSWNSGALTSGVHTFPAVLQSSGLYSLSSVVTVPSSSLGTQTYICNVNHKPSNTKVDKRVEPKSCGGGGSQLQLQESGPGLVKPSETLSLTCTVSGGSISSSSYAWGWIRQPPGKGLEWIGSIYYSGSTYYNPSLKSRVTISVDTSKNQFSLKLSSVTAADTAVYYCARDSGRGYGDYGGHHAFDIWGQGTMVTVSSASTKGPSVFPLAPCSRSTSESTAALGCLVKDYFPEPVTVSWNSGALTSGVHTFPAVLQSSGLYSLSSVVTVPSSSLGTKTYTCNVDHKPSNTKVDKRV[human IgG4 Fc with S228P (EU numbers) left out] light: [about 100 residues left out][about 120 residues left out] |
| – | – | – | – | – | – | – | – | – | – | – | – | – | 0.3 | no binding (tested: 100 nM) | 3.7 | ABP23 (antibody, human IgG4 S228P, kappa, TM format, N-terminal Fab: VH + IgG1 CH1 + GGGGS + VH + IgG4 S228P) heavy: QVQLQESGPGLVKPSETLSLTCAVSGYSISSEYMWGWIRQPPGKGLEWIGLIYHSGKTYYNPSLKSRVTISVDTSKNQFSLKLSSVTAADTAVYYCARDSGRGYGDYGGHHAFDIWGQGTMVTVSSASTKGPSVFPLAPSSKSTSGGTAALGCLVKDYFPEPVTVSWNSGALTSGVHTFPAVLQSSGLYSLSSVVTVPSSSLGTQTYICNVNHKPSNTKVDKRVEPKSCGGGGSQVQLQESGPGLVKPSETLSLTCAVSGYSISSEYMWGWIRQPPGKGLEWIGLIYHSGKTYYNPSLKSRVTISVDTSKNQFSLKLSSVTAADTAVYYCARDSGRGYGDYGGHHAFDIWGQGTMVTVSSASTKGPSVFPLAPCSRSTSESTAALGCLVKDYFPEPVTVSWNSGALTSGVHTFPAVLQSSGLYSLSSVVTVPSSSLGTKTYTCNVDHKPSNTKVDKRV[human IgG4 Fc with S228P (EU numbers) left out] light: [about 100 residues left out][about 120 residues left out] |
| – | – | – | – | – | – | – | – | – | – | – | – | – | 0.17 | no binding (tested: 100 nM) | 6.6 | ABP24 (antibody, human IgG4 S228P, kappa, TM format, N-terminal Fab: VH + IgG1 CH1 + GGGGS + VH + IgG4 S228P) heavy: QVQLQESGPGLVKPSQTLSLTCTVSGGSISSGGAVWSWIRQHPGKGLEWIGGIAYSGSTYYNPSLKSRVTISVDTSKNQFSLKLSSVTAADTAVYYCARDSVRGYGDYGGHHAFDIWGQGTMVTVSSASTKGPSVFPLAPSSKSTSGGTAALGCLVKDYFPEPVTVSWNSGALTSGVHTFPAVLQSSGLYSLSSVVTVPSSSLGTQTYICNVNHKPSNTKVDKRVEPKSCGGGGSQVQLQESGPGLVKPSQTLSLTCTVSGGSISSGGAVWSWIRQHPGKGLEWIGGIAYSGSTYYNPSLKSRVTISVDTSKNQFSLKLSSVTAADTAVYYCARDSVRGYGDYGGHHAFDIWGQGTMVTVSSASTKGPSVFPLAPCSRSTSESTAALGCLVKDYFPEPVTVSWNSGALTSGVHTFPAVLQSSGLYSLSSVVTVPSSSLGTKTYTCNVDHKPSNTKVDKRV[human IgG4 Fc with S228P (EU numbers) left out] light: [about 100 residues left out][about 120 residues left out] |
